In the data set the test system is ATP. Put plainly: switch fluorescence ratio, 500 uM ATP over buffer (Cy3 cluster intensity, sum of 5 cycles each) (fold (ratio)); higher = stronger signal-on switching upon ATP binding; sequences stand for … in TCGTCGGCAGCGTCAGATGTGTATAAGAGACAGTTTTTTTTTTTTTTTTTTTTTTTTT…TC. As to conditions: aptamer strand: ATP DNA aptamer (quencher-CACCTGGGGGAGTATTGCGGAGGAAGG + anchor), 100 nM annealed; ATP concentration: 500 uM; one replicate. In outline:
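Switching-strand clusters labelled with Cy3 on a modified Illumina MiSeq flow-cell were annealed to 100 nM quencher-labelled ATP aptamer, imaged in selection buffer, and re-imaged after 15 min with 500 uM ATP at 22 °C. This was done over five cycles with NaOH stripping and re-annealing in between. The fluorescence ratio is summed target-cycle over summed buffer-cycle Cy3 intensity per cluster, averaged per switch-domain sequence, excluding clusters outside 100-1000 RFU.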

Sequences with one replicate were seen in a single cluster, so their values are uncertain.
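Note: ATP exposure 15 min at 22 °C before imaging.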

On to CATGTAATCC, for which the switch fluorescence ratio came out at 1.04.
On to CCGTAATTCT, for which the switch fluorescence ratio is 4.11.
The same measure for TTCGGAAGCG: 1.01.
Take TGTTCACCTG: the switch fluorescence ratio was determined as 1.11.
The same measure for ATGCTTGGGA: 1.01; for ATGACGGTGT: 0.981; for CGGGGAACT: 1.04.
As to TACATACTTA, the switch fluorescence ratio amounted to 1.31.
Consider ATCGGAACCA, for which the switch fluorescence ratio worked out at 1.01.
Consider GTTACCCTTC, for which the switch fluorescence ratio was determined as 1.06.
For ATACTTAGTT the value was 1.05; for GGCCTAGTAG, 1.
For the sequence CGGAAGTTC, the switch fluorescence ratio was 0.986.
For AATAAAAGGT the value was 0.986; for AGTTAAGCAC, 1.33.
Consider GACCGGGCGT, for which the switch fluorescence ratio was 0.994.
The same measure for TAGCCCGGCG: 0.998; for GGGGCCTGGG: 1.02.
In the case of ACTCGCGATG, the switch fluorescence ratio was 1.19.
For GCACAAGGCG the value was 1.07; for TTTCCTTAGA, 0.995.
As to CTCATTTTGG, the switch fluorescence ratio is 0.972.
The same measure for CGTGTGGCT: 1.03; for ATGTTCGCAT: 1.02.
With TCGTGGGCAT, the switch fluorescence ratio worked out at 1.06.
Regarding CGGACATAAT, the switch fluorescence ratio was determined as 1.05.
On to TTATATT, for which the switch fluorescence ratio stood at 0.984.
Regarding TTTTTACCCC, the switch fluorescence ratio was determined as 1.13.
The same measure for GTGTCCTGAG: 1.
For AATTTTCGAG the value was 1.02.
TAACTCACAT: the switch fluorescence ratio was found to be 1.24.
For the sequence CAGGCGACAG, the switch fluorescence ratio was determined as 0.976.
As to ACACAACAGG, the switch fluorescence ratio came out at 1.35.
With ACATGCGCCG, the switch fluorescence ratio is 1.04.
The same measure for AGCTCTCTAG: 0.999; for AACTAGAATT: 1.02; for TTACATCGTT: 0.992.
The same measure for CCGTACTCTT: 1.31; for CTAGAGTATA: 1.01.
For ACGTGTGGCC the value was 1.04; for TGAGGCTCTG, 0.993; for GCGCTATGGG, 0.973.
On to TAAGATTGGT, for which the switch fluorescence ratio is 0.974.
For ACCTCAGCGG the value was 1.4.
For GAATCTGTAT the value was 1.01; for CCACGCTGGG, 1.17; for ATCTTTATAA, 0.975.
The same measure for ACCACGGCAC: 1.77; for GGGTTACCGG: 0.981; for GCAGATGAGT: 0.999.
As to GAGTGACCCT, the switch fluorescence ratio worked out at 1.04.
For the sequence CAGCACAGAC, the switch fluorescence ratio is 3.6.
For TCTGGCAGTT the value was 1.02; for TATCGGTACT, 1.07.
For GAGGAGGGG the value was 1.03; for TGCAAACATG, 0.995.
The same measure for TTCTGAGCAC: 1.53; for GGTAGGTCTC: 0.982.
For ACCATATAAT, the switch fluorescence ratio worked out at 1.03.
As to GCCGGTCCTT, the switch fluorescence ratio is 0.988.
For AGTATAATTC, the switch fluorescence ratio was found to be 0.997.
The same measure for ATTACAGAAA: 1.07; for TGCGTGGATG: 1.02; for CAATTCTACC: 1.47.
For GAGCGCATTC the value was 2.14.
The same measure for CGGTCTTAA: 0.986; for GATTTCGAAG: 1.01.
With GGATATACCT, the switch fluorescence ratio came out at 1.24.
The same measure for GGCGGGTTTG: 1.06; for CATAAGAACG: 1.04; for TTAGTATA: 0.955.
For TATTTTCGG the value was 0.966.
For GGCCGCGGAG the value was 1.02; for ACGGGCGGGT, 1.14; for TTGGTGGCAT, 1.01.
For the sequence CCCCTGTCGA, the switch fluorescence ratio came to 1.07.
For GTTTTACTTC the value was 1.01.
The same measure for ACGCGTACAC: 1.09; for TATCGTCTGT: 0.985; for CCTGTGTTAA: 1.08.
The same measure for AGAGGTACTC: 1.03; for GGGAGGTCTG: 0.959; for TCACAACGAC: 1.06.
Regarding TGAGCCGATG, the switch fluorescence ratio is 1.02.
For TTCTAAATTG, the switch fluorescence ratio came to 1.1.
The same measure for GAGGAGAGCT: 1.02.
The same measure for AACGTCCACA: 1.29; for AAAGGTGAGG: 0.994; for TCGTAGTGTA: 1.
For ATGGGATACC the value was 0.991; for TAGGTGTTTA, 0.994.
As to GTCGCCCCCG, the switch fluorescence ratio came to 1.02.
On to CGGGGTAGT, for which the switch fluorescence ratio stood at 1.01.
With GGTATTGGTC, the switch fluorescence ratio is 1.
As for TGCAGGACCA, the switch fluorescence ratio stood at 1.
The same measure for GGTTCATCGT: 1.02; for TTGCTGAGAG: 0.971; for CACAAGGCGC: 1.01.
The same measure for ATTTCGACGA: 1.04; for AGCAAATGGA: 1.06; for AGAAGAGCAA: 1.68.
For GGGGAAGGTC the value was 0.975.
Regarding AGAACTAATG, the switch fluorescence ratio amounted to 1.04.
The same measure for CATTCTCGAA: 0.955.
For CAACACACCC the value was 1.38; for CGTGATATT, 1.08; for CTCGGGTTTA, 0.969.
For TCAATTGTGG the value was 0.978; for AAGGTACGAC, 1.02.
Turning to TTTGATCTCC, the switch fluorescence ratio turned out to be 1.03.
The same measure for AACTATACCT: 0.939; for CAATAAATG: 0.948; for TAGATGTAT: 0.989.
As for CTAGCGCTCA, the switch fluorescence ratio was found to be 0.992.
On to CTACGTGCTC, for which the switch fluorescence ratio came to 1.42.
CTCACCGTTA: the switch fluorescence ratio was 1.09.
The same measure for CTGCCACTTT: 1.05; for GGTGACGGGG: 1.01.
As to GGGCAGTGTT, the switch fluorescence ratio amounted to 1.08.
As for AGTTGAAACG, the switch fluorescence ratio is 0.981.

The values are drawn from the supplement of paper PMC10126150.
